Results published in PubChem BioAssay AID1159614 (National Center for Advancing Translational Sciences (NCATS), 2016).
About 65 (0.1%) of roughly 45,000 compounds were called active. Calls come from the whole dose curve; as a rule, active = well fitted activation curve with a large enough effect; inconclusive = small, poorly fitted or top-dose-only effect; inactive = no such curve, though single readings can be large or run the other way. The list shows a part of the results.

Each compound was assayed against Galactocerebrosidase (Homo sapiens) (UniProt P54803) (assay: A Novel Cell-Based Assay to Identify Small Molecules for B -Galactocerebrosidase). Conditions: 145M-Twi-hGALC-G270D cells (Twitcher mouse brain line with human GALC G270D), HMU-beta-Gal fluorescence, 48 h; series mostly up to 57.5 µM; activation: at the top concentration.
Sequence of UniProt P54803 (P54803 whole entry, looked up): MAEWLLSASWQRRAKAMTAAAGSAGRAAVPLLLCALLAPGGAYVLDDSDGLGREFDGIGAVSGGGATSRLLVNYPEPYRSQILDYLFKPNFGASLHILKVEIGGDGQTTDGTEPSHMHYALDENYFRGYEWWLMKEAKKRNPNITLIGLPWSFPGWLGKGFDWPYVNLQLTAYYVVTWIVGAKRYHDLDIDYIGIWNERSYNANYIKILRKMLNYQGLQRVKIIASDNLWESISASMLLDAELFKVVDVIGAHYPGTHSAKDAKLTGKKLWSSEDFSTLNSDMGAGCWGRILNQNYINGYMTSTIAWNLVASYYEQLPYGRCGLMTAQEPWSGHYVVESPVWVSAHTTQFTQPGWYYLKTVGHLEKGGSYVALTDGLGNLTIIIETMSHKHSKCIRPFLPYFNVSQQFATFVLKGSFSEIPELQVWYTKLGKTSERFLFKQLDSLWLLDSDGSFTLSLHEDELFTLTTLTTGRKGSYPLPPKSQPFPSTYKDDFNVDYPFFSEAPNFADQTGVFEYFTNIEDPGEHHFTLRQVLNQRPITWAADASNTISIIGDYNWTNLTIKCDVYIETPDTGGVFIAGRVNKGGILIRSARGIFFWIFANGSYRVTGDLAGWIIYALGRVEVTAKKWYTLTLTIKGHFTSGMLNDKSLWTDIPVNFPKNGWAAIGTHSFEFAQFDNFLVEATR
Outline: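 Live 145M-Twi cells (Twitcher mouse brain-derived, GALC-null) stably expressing human GALC-G270D, with a wild-type GALC line, were compound-treated. Residual GALC activity was then read as fluorescence from 0.1 mM final HMU-β-gal at pH 5.2; higher signal means activation.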
Note: 0% is about no effect; nearly all actives have a fitted effect of over 65% in size.

activation, inactive:
N#Cc1ccccc1Cn1c(=O)n(-c2ccc(F)c(Cl)c2)c(=O)c2sccc21 1.81%, COc1ccc(CC(=O)NCCc2csc(-c3cccc(F)c3)n2)cc1OC -11%, Cc1ccc(C)c(NC(=O)Cn2c(=O)n(Cc3ccco3)c(=O)c3ccc(C(=O)NC4CCCC4)cc32)c1 -24.2%, CCOc1ccccc1Nc1sc(C(=O)c2ccc(Cl)cc2)c(N)c1C#N 16.4%, COc1ccc2c(c1)C(=O)N(CCc1ccc(S(=O)(=O)NC(=O)NC3CCCCC3)cc1)C(=O)C2(C)C -16.2%, O=C(c1ccc(CSc2nc3ccncc3n2Cc2ccccc2F)cc1)N1CCCCC1 -12%, CCOc1ccc(NC(=O)NCCCN2CCN(c3ccc(OC)cc3)CC2)cc1 -13.3%, CC(C)c1ccc(NC(=O)CNC(=O)Cn2ccc3ccccc3c2=O)cc1 0.0874%, CCc1ccc2c(c1)c(=O)c(C(=O)c1ccc(C)cc1)cn2CC(=O)Nc1ccc2c(c1)OCCO2 -10.8%, Cc1ccccc1NC(=O)Cn1c(=O)n(Cc2ccco2)c(=O)c2cccnc21 -21.7%, Cc1ccc(-c2cc(C(=O)NCCc3ccccc3)c3ccccc3n2)cc1C 11.4%, O=C(NCCc1ccccc1)c1cc(-c2ccccc2)nc2n[nH]c(-c3ccccc3)c12 -4.16%, O=C(NCc1ccc(F)cc1)c1cccc(N2CCCS2(=O)=O)c1 -14.7%, CN(C)c1ccc(/C=C(\C#N)c2nc3ccccc3c(=O)[nH]2)cc1 -31.5%, Cc1ccc(Cl)cc1NC(=O)C1CCCN(S(=O)(=O)c2c(C)noc2/C=C/N(C)C)C1 (stereo unspecified) -9.77%, COC(=O)c1c(NC(=O)CCCOc2ccccc2)sc2c1CCC(C)C2 (stereo unspecified) -12.5%, O=C(Nc1ccccc1C(=O)OCc1cc(=O)n2ccsc2n1)c1cccc(F)c1 -0.778%, Cc1cc(Nc2cccc(Cl)c2)nc2ccc(NC(=O)c3ccc(F)cc3Cl)cc12 1.49%, Cc1ccc2nc(/C(C#N)=C/c3ccc(-c4ccc(F)cc4F)o3)[nH]c2c1 -20.1%, Fc1ccc(C2=NC(c3cccc(C(F)(F)F)c3)=Nc3ccccc3N2)cc1 -12.7%, CCC(=O)N1CCc2cc(S(=O)(=O)CCC(=O)N(C)c3ccc(OC)cc3)ccc21 -12.8%, O=C(c1ccc(CS(=O)c2ccccc2Cl)o1)N1CCN(c2ccccc2F)CC1 (stereo unspecified) -8.54%, CN(C)CCN(Cc1ccc(Cl)cc1)c1ccccn1 -14.8%, COc1ccccc1-c1c(C)nn2c(C(F)(F)F)cc(-c3ccccc3)nc12 -11.7%, Cc1ccc(CN2CCC(CNC(=O)Nc3c(C)cccc3C)C2)cc1 (stereo unspecified) -0.853%, CSc1cccc(NC(=O)c2ccc3c(c2)c(C)c(C)n3Cc2ccc(F)cc2)c1 -15.5%, Cc1cc(C)c2c(CC(=O)Nc3nnc(CC(C)C)s3)coc2c1 -17%, CC(C)NS(=O)(=O)c1ccc(OCC(=O)N2CCN(c3ccccc3F)CC2)cc1 -14.8%, CCc1ccc(S(=O)(=O)c2cn(C)c3cc(N4CCN(CC)CC4)c(F)cc3c2=O)cc1 -14.7%, COc1ccc(CCCc2nnc(SCC(=O)Nc3ccc(C)c(C)c3)o2)cc1 -8.6%, CC(C)(C)c1ccc(OCC(=O)Nc2c(C(=O)c3ccc(F)cc3)oc3ccccc23)cc1 -14.8%, COc1cc(C(=O)NCCSc2c(-c3ccccc3)[nH]c3ccccc23)cc(OC)c1OC -3.65%, O=C(CCC1N=C2c3ccccc3N=C(SCc3cccc(Cl)c3)N2C1=O)NCc1cccs1 (stereo unspecified) -0.44%, CCC(=O)Nc1cccc(-c2cn3c(C)csc3n2)c1 -14.7%, COc1cccc(C(=O)N(Cc2cccc(Cl)c2)Cc2ccco2)c1 -14.7%, Cc1nn(C)c2c1c(-c1ccccc1)cc(=O)n2CC(=O)NC(C)(C)C -5.77%, CCC(C)n1c(=N)c(S(=O)(=O)c2ccccc2)cc2c(=O)n3ccccc3nc21 (stereo unspecified) -13%, Cc1ccc(NC(=O)Cn2c(=O)nc(-c3ccccc3F)c3cc(Cl)ccc32)c(Br)c1 -9.66%, NS(=O)(=O)Cc1noc2ccccc12 -18.5%, CCOC(=O)c1ccccc1NC(=O)CSc1ncc2c(n1)-c1ccccc1N(CC)S2(=O)=O -17.9%, CCOc1ccc(S(=O)(=O)N(CC(=O)NCCSCc2ccccc2)c2ccccc2)cc1 1.24%, CCOc1ccccc1NC(=O)N1CCN(Cc2cc(=O)n3nc(-c4ccc(C)cc4)sc3n2)CC1 -7.28%, COc1cc2nc(SCc3ccc(F)cc3)n3nc(CCn4c(C)nc5ccccc54)nc3c2cc1OC -16.4%, CCCSC1=NC2(CCN(C(=O)NC3CCCCC3)CC2)N=C1c1ccc(Cl)cc1 -6.22%, Cc1ccc(CN2CCCN(Cc3c(C)cc(C)cc3C)S2(=O)=O)cc1 -8.43%, Cc1cccc(CSc2nc(-c3cccc(C)c3)nc3c2Cc2c(CO)cnc(C)c2O3)c1 -9.18%, Cc1ccc(CNC(=O)CCS(=O)(=O)c2cc3c(cc2C)NC(=O)CO3)cc1 -0.677%, O=C(CSc1nc2c(oc3ccccc32)c(=O)n1Cc1ccco1)Nc1ccccc1 -12.6%, Cc1ccc(N2CCN(S(=O)(=O)c3c(C)[nH]c(=O)[nH]c3=O)CC2C)cc1 (stereo unspecified) -16%, Cc1nn(Cc2noc(C(=O)NC(C)c3ccccc3)n2)c(C)c1Br (stereo unspecified) -12.9%, COc1cc(Cl)c(C)cc1NC(=O)Cn1cc(S(=O)(=O)N2CCC(C)CC2)c2ccccc2c1=O -1.33%, CCCN(CCC)c1nn2c(=O)c(C(=O)NCc3cc(Br)ccc3OC)cnc2s1 -20.6%, CCOC(=O)c1cc(-c2ccccc2)n(CC(=O)Nc2ccc(CC)cc2)c1C -14.8%, CC(C)(C)C(=O)OCc1cc(=O)n2nc(C3CC3)sc2n1 -9.61%, COc1ccc(C)cc1NC(=O)COCc1cc(-c2ccc(F)cc2)on1 -5.75%, CC1(C)O[C@@H]2[C@@H](CO[C@@]3(COS(N)(=O)=O)OC(C)(C)O[C@@H]23)O1 -10.6%, Cc1cccc(S(=O)(=O)c2cn(C)c3cc(N4CCN(c5ccc(F)cc5)CC4)c(F)cc3c2=O)c1 -28.6%, COc1ccc(OC)c(CCNC(=O)CCn2c(=O)c3cccn3c3ccc(F)cc32)c1 -10%, CC[N+](CC)(CC(=O)Nc1c(C)cccc1C)Cc1ccccc1 -16.1%, CC(C)c1ccc(NC(=O)CSC2=Nc3ccccc3C3=NC(CCC(=O)NCc4ccco4)C(=O)N23)cc1 (stereo unspecified) 0.718%, COc1cc(NS(=O)(=O)c2ccc(N)cc2)nc(OC)n1 -1.71%, O=C(CSc1nc(=O)n(Cc2ccco2)c2c1CCC2)Nc1ccccc1C(F)(F)F 3.36%, Cc1ccc2c(=O)cc(C(=O)Nc3ccc(S(=O)(=O)N4CCCCCC4)cc3)oc2c1 0.106%, CCCCNC(=O)c1ccccc1NC(=O)CN(c1ccccc1)S(=O)(=O)N(C)C 1.4%, Cc1ccc(CN2CCSc3ccc(C(=O)Nc4ccc(C)cc4)cc32)cc1 -8.63%, CC(=O)N1CCCc2cc(S(=O)(=O)N3CCC(C(=O)NCc4ccccc4)CC3)ccc21 -20.4%, CCc1nnc(SCC(=O)N(CC)c2ccccc2)c2cc3oc(C)cc3n12 -7.73%, CCc1ccc(NC(=O)C2CCCN(S(=O)(=O)c3ccc(F)cc3)C2)cc1 (stereo unspecified) -30.6%, CCOC(=O)CNC(c1ccccc1)c1cc(Br)ccc1NC(=O)c1cccc(Cl)c1 (stereo unspecified) -9.68%, Cc1ccc(Cl)cc1N1CCN(C(=O)c2cc(S(=O)(=O)N3CCCC3)c[nH]2)CC1 10.7%, CCN(Cc1ccccc1)C(=O)Cn1c(=O)n(-c2ccc(Cl)cc2)c(=O)c2c(C)c(C)sc21 -14.2%, Cc1ccc(C)c(Cn2c(=O)n(-c3ccc(Cl)cc3)c(=O)c3c(C)c(C)sc32)c1 -10.1%, COc1ccc(CC(=O)NCC(c2ccc(Cl)cc2)N2CCOCC2)cc1 (stereo unspecified) -8.66%, Cc1ccc(Cn2c(=O)n(Cc3ccco3)c(=O)c3oc4ccccc4c32)cc1 -4.71%, Cc1ccc(C)c(NC(=O)CSc2nc3c([nH]c4ccccc43)c(=O)n2-c2ccc(F)cc2)c1 -14.8%, CCOc1ccc(OCC)c(NC(=O)c2cnc(SC)nc2-c2ccccc2)c1 -3.96%, Cc1ccc(Cc2cn3cc(-c4ccccc4)nc3s2)cc1 -0.836%, Cc1ccc(C)c(Oc2nc3c(c(=O)n(C)c(=O)n3C)n2Cc2ccccc2)c1 -8.74%, CN(C)S(=O)(=O)c1ccc2c(c1)nnn2CCNC(=O)Nc1ccc(Cl)cc1 -8.59%, Cc1ccc(S(=O)(=O)c2nnn3c2nc(NC2CCCCC2)c2sccc23)cc1 -1.66%, COc1cc(NC(=O)C2=CC(c3ccco3)=NS(=O)(=O)N2C)cc(OC)c1OC -12.1%, O=C(COc1ccc(F)cc1)Nc1ccccc1C(=O)OCc1cc(=O)n2ccsc2n1 -6.72%, CCCCn1c(=O)c2oc3ccccc3c2n(Cc2ccccc2C)c1=O 3.34%, CCOC(=O)c1[nH]c2c(c1Cc1ccccc1OC)C(=O)CC(c1ccccc1)C2 (stereo unspecified) -25.9%, CCCSCCCNC(=O)CN1C(=O)COc2ccc(S(=O)(=O)N3CCCC3)cc21 -8.47%, Cc1ccc(C)c(N2CCN(C(=O)c3ccc4c(=O)n(CCc5ccccc5)c(=O)[nH]c4c3)CC2)c1 -11.1%, COCCc1nn2c(=O)cc(COC(=O)c3ccccc3C)nc2s1 -22.2%, Cc1nc(-c2ccccc2)sc1CCNC(=O)C(=O)Nc1ccc(F)c(Cl)c1 -12%, NC(=O)c1ccccc1NC(=O)CN1c2ccccc2S(=O)(=O)c2ccccc21 -22.3%, COc1ccc(Cl)cc1C(=O)NCc1nnnn1-c1ccccc1 -7.46%, COc1nnc(-c2ccc(N3CCCCC3)c(NC(=O)c3ccccc3Cl)c2)c2ccccc12 -18.9%, O=C(Nc1sc2c(c1C(=O)NCc1ccccc1)CCCC2)c1cc(=O)c2ccccc2o1 -13.1%, CCc1ccc(NC(=O)C(=O)NCC(c2cccnc2)N2CCc3ccccc3C2)cc1 (stereo unspecified) -16.1%, COCc1cc(C)nc2c1C(=O)NC(c1ccc(Br)cc1)N2Cc1ccccc1 (stereo unspecified) -8%, COC(=O)c1c(NC(=O)COc2ccc(Cl)cc2)sc(C)c1C -7.67%, COc1cccc(N2CCN(C(=O)Cn3nc(C)n4c(cc5c(OC)cccc54)c3=O)CC2)c1 -8.55%
